Here are results for 172 sequences from PMC10668032.

The list shows a part of the results. At the low end of the ranking the order means little.

In this experiment the target is SIX1-Q177R homeodomain (UniProt Q15475). Description: universal protein binding microarray. The settings on record: Universal all-10-mer PBM (8x60K, AMADID 030236), 300 nM GST-tagged protein, Alexa Fluor 488 anti-GST; buffer, salt, pH and temperature not stated; high values mean tight binding; most listed sequences are background and not binding sites; double strand, one strand shown.
GCCTGTTA: the binding signal is -0.0357 E-score.

Consider GGACAGTA, for which the binding signal is -0.0361 E-score.

As for ACAAATCT, the binding signal is -0.161 E-score.

Turning to ACTACCAA, the binding signal was 0.0147 E-score.

As for ATTCACTG, the binding signal is -0.0924 E-score.

For TCTGGTCA, the binding signal is 0.0989 E-score.

In the case of AATCCGTG, the binding signal was determined as 0.17 E-score.

Take CTTGGGCA: the binding signal was -0.105 E-score.

Turning to GGGCCGAC, the binding signal is -0.0882 E-score.

TAATCTGA: the binding signal was -0.0141 E-score.

With AAAAATTA, the binding signal is -0.198 E-score.

In the case of GAAAACTA, the binding signal was -0.108 E-score.

Consider CATCAGGG, for which the binding signal came out at 0.0127 E-score.

GCCTTCTA: the binding signal was -0.229 E-score.

AGTTTTGG: the binding signal amounted to 0.0991 E-score.

Turning to CACTGGGA, the binding signal stood at 0.168 E-score.

As to CCTCAAGA, the binding signal was -0.0566 E-score.

As for AATAGATG, the binding signal is -0.0918 E-score.

As to AAACAGGC, the binding signal is -0.157 E-score.

In the case of AGCACACC, the binding signal came out at 0.38 E-score.

AGTTCATA: the binding signal is -0.129 E-score.

On to GTTCTTCA, for which the binding signal is -0.158 E-score.

For the sequence AAGACTAC, the binding signal is -0.117 E-score.

On to AGGCGATA, for which the binding signal was -0.1 E-score.

Turning to AACACTCA, the binding signal is 0.4 E-score.

Take CTCCTCAA: the binding signal is -0.147 E-score.

In the case of TGCACCCA, the binding signal is 0.153 E-score.

For the sequence AAAGGTCG, the binding signal is -0.0879 E-score.

As for CTGTTGGA, the binding signal was -0.233 E-score.

AAAGGTGT: the binding signal worked out at 0.452 E-score.

For GCCAGCGC, the binding signal was -0.181 E-score.

With CATACCAG, the binding signal is -0.104 E-score.

For CCCTGCAA, the binding signal turned out to be 0.165 E-score.

With CTTGGCAC, the binding signal is -0.11 E-score.

Regarding ACTACACA, the binding signal came to 0.265 E-score.

On to ATAAGCAC, for which the binding signal turned out to be 0.166 E-score.

For the sequence CTAGCCCC, the binding signal amounted to 0.082 E-score.

AAGTGTCC: the binding signal was 0.332 E-score.

Consider CCTAGTTA, for which the binding signal is 0.0358 E-score.

On to CTCCGGTA, for which the binding signal stood at 0.161 E-score.

Turning to AGACGGAC, the binding signal is -0.113 E-score.

Turning to AAGGCCTA, the binding signal was -0.111 E-score.

Turning to CCCCACTA, the binding signal was determined as 0.146 E-score.

For CCCAGAGG, the binding signal was 0.017 E-score.

Take GCGTGGGA: the binding signal is -0.099 E-score.

In the case of ATTCCGCA, the binding signal was -0.106 E-score.

With CGACATCC, the binding signal worked out at 0.0314 E-score.

Consider GGGCGGTA, for which the binding signal amounted to 0.18 E-score.

As for ATCATCGA, the binding signal was -0.146 E-score.

In the case of ACCTTGGG, the binding signal was 0.0781 E-score.

In the case of ATCATAAT, the binding signal is -0.0988 E-score.

For TGCGCGCA, the binding signal was 0.22 E-score.

Turning to AGACGTAG, the binding signal is -0.189 E-score.

Regarding AAATTGAA, the binding signal was -0.245 E-score.

Turning to AACGGCCT, the binding signal was -0.233 E-score.

For the sequence CTAGACAA, the binding signal is -0.162 E-score.

On to AGGATCAG, for which the binding signal amounted to 0.0228 E-score.

As to ATCTTGCA, the binding signal is -0.264 E-score.

Take GAGATGTA: the binding signal came to 0.195 E-score.

On to ACATAATC, for which the binding signal was -0.0974 E-score.

On to GTTTACGA, for which the binding signal stood at 0.0291 E-score.

For the sequence AAGACAAA, the binding signal is -0.268 E-score.

On to AGAAGACA, for which the binding signal was 0.137 E-score.

Consider CCACTGCG, for which the binding signal was -0.0314 E-score.

For the sequence AACATCAG, the binding signal was -0.238 E-score.

With TTGGACAA, the binding signal was -0.0574 E-score.

Turning to CGCCTTAC, the binding signal worked out at 0.132 E-score.

In the case of TAGCCAAA, the binding signal is -0.146 E-score.

For GTGCTACA, the binding signal came out at 0.145 E-score.

For the sequence AGCCTACG, the binding signal was -0.175 E-score.

As to ATTTAAAT, the binding signal is -0.318 E-score.

Regarding TGCCTAAA, the binding signal is -0.212 E-score.

GTGCCAGA: the binding signal was 0.0423 E-score.

Turning to CCCTTACC, the binding signal came to 0.0345 E-score.

CTGTTCAA: the binding signal was -0.152 E-score.

As to GGCTACGA, the binding signal came out at 0.196 E-score.

Consider AATCACCG, for which the binding signal is -0.229 E-score.

TCAGACAA: the binding signal is 0.105 E-score.

For AGCATTAA, the binding signal is -0.257 E-score.

Consider ATTCGATG, for which the binding signal is -0.144 E-score.

Regarding AGAAGTTC, the binding signal was -0.28 E-score.

With CAAGCAAG, the binding signal was -0.183 E-score.

For ATACTAGG, the binding signal is -0.0228 E-score.

Regarding ACGTGCGG, the binding signal was 0.064 E-score.

As for ACCCGACA, the binding signal was 0.325 E-score.

In the case of CCTCAATC, the binding signal is -0.103 E-score.

In the case of CAACTGAG, the binding signal was 0.0563 E-score.

Take AAACCTTA: the binding signal was -0.206 E-score.

With ACGGAGGC, the binding signal was -0.0184 E-score.

Turning to ATATAGCA, the binding signal came out at 0.0197 E-score.

For ACAACCTC, the binding signal is -0.0155 E-score.

CTCCGGAG: the binding signal was found to be 0.0557 E-score.

For the sequence CCTATGAC, the binding signal is -0.1 E-score.

As to CGGTGCAG, the binding signal was 0.128 E-score.

As to CCATTCGA, the binding signal was -0.132 E-score.

On to GTTATTTA, for which the binding signal was 0.0334 E-score.

Regarding ATCAAAGG, the binding signal was -0.096 E-score.

As for ATCGCCAA, the binding signal is -0.208 E-score.

Regarding AGCTAAAT, the binding signal is -0.263 E-score.

As for AATACACT, the binding signal worked out at 0.327 E-score.

Turning to CCGGCAGC, the binding signal was -0.0124 E-score.

GTCTCTTA: the binding signal was -0.181 E-score.

As for AACGCCTG, the binding signal is -0.00924 E-score.

GACGTCGC: the binding signal is -0.115 E-score.

Regarding CATATCGA, the binding signal was found to be 0.0446 E-score.

Consider CAGTTCGC, for which the binding signal is -0.311 E-score.

Consider ACTCGACG, for which the binding signal turned out to be 0.0902 E-score.

For CTTTGCCC, the binding signal was -0.153 E-score.

Consider GGATGTAC, for which the binding signal turned out to be 0.0663 E-score.

With AAATCGCC, the binding signal is -0.261 E-score.

For the sequence ATCTGCTA, the binding signal was -0.105 E-score.

As for CACAGGCC, the binding signal was -0.0389 E-score.

TAGGGGCA: the binding signal is 0.106 E-score.

For AATTGTTC, the binding signal was -0.116 E-score.

For the sequence AAGTCTCA, the binding signal is -0.0853 E-score.

On to GACCTTAC, for which the binding signal is -0.0734 E-score.

Consider ATTTAAAA, for which the binding signal is -0.198 E-score.

For the sequence CTGAAAGA, the binding signal was -0.0958 E-score.

As to TCGCGTAA, the binding signal is -0.129 E-score.

Consider AAGTGATT, for which the binding signal was -0.192 E-score.

CACGTGAC: the binding signal was 0.258 E-score.

For the sequence GTTCGCTA, the binding signal is -0.0122 E-score.

With CAAAGTTG, the binding signal was -0.121 E-score.

In the case of CGGCAATC, the binding signal is -0.128 E-score.

Regarding GAAGAAAA, the binding signal was -0.0849 E-score.

For CAGTGCGC, the binding signal was -0.0433 E-score.

As for AACGGAGC, the binding signal is -0.0838 E-score.

Consider ACAAATTG, for which the binding signal was -0.039 E-score.

AGAAGCAC: the binding signal was -0.0182 E-score.

As for GGGGAAAA, the binding signal was -0.28 E-score.

With AGTCGGCA, the binding signal was -0.0374 E-score.

In the case of AACAAACA, the binding signal was 0.0308 E-score.

In the case of GATCCTTA, the binding signal was found to be 0.119 E-score.

In the case of ATCAGCAG, the binding signal is -0.113 E-score.

On to AGCATACT, for which the binding signal was -0.181 E-score.

For the sequence TGTTTAAA, the binding signal came out at 0.114 E-score.

Take GAGCTTAC: the binding signal is -0.0995 E-score.

On to AAAGAAGG, for which the binding signal was -0.0232 E-score.

With AATGCATC, the binding signal was -0.233 E-score.

ATTAACAA: the binding signal is -0.0537 E-score.

Take CGTATTTA: the binding signal is -0.116 E-score.

Turning to CGATTGCG, the binding signal is -0.0968 E-score.

On to CAGAACCA, for which the binding signal was -0.265 E-score.

On to TAATTATA, for which the binding signal was -0.0824 E-score.

Take ATTATTAG: the binding signal was -0.18 E-score.

As for CCAGTATC, the binding signal is 0.0625 E-score.

Consider AAGTGCGT, for which the binding signal was -0.0669 E-score.

As to CGCGGCTA, the binding signal is -0.109 E-score.

As to ACCCCTAG, the binding signal is 0.208 E-score.

For the sequence GTACGTAA, the binding signal was -0.0954 E-score.

Consider CGTTCGAG, for which the binding signal came out at 0.0734 E-score.

On to CGGTGGTC, for which the binding signal was -0.0136 E-score.

For CCCTCCAC, the binding signal was -0.0105 E-score.

Turning to CCGGGCAA, the binding signal was -0.0412 E-score.

Take ATGACCAT: the binding signal was -0.142 E-score.

Consider AGGGATCA, for which the binding signal was 0.246 E-score.

Consider AATATTTG, for which the binding signal is -0.0232 E-score.

Take AGTGCTTG: the binding signal was 0.0711 E-score.

CAGTTAGA: the binding signal was -0.228 E-score.

Turning to CCTGGCCA, the binding signal was -0.177 E-score.

Take ACGCAGAG: the binding signal was -0.0791 E-score.

On to ACAGCTAA, for which the binding signal came out at 0.0383 E-score.

Take ATCAATTA: the binding signal was -0.00412 E-score.

Consider CTTGTCTC, for which the binding signal is -0.158 E-score.

Consider GTCTCGAA, for which the binding signal was -0.0405 E-score.

For GTATACTA, the binding signal was found to be 0.13 E-score.

In the case of GACGCAAA, the binding signal is -0.237 E-score.

On to CAGGAAGG, for which the binding signal was -0.0838 E-score.

Take AGACACAG: the binding signal came to 0.0576 E-score.

Consider CCTACGCC, for which the binding signal stood at 0.0645 E-score.

Consider GGTCGCAC, for which the binding signal is -0.101 E-score.

Turning to ACAAGAGT, the binding signal came to 0.029 E-score.
